Reference: patent US11696928B2, “Compounds and use thereof in the expansion of stem cells and/or progenitor cells” (UNIVERSITE DE MONTREAL, priority 2017, dated 2023)
At least one read-out could not be matched to a standard name with certainty.

What follows are compounds tested on Human CD34+ cord blood (CB) cells (assay: CD34+ activity assessment (7-day expansion of pre-expanded CD34+ cells, flow cytometry)). Conditions: concentration at which compound/vehicle ratio of CD34+ cell number is >= 1.5; 7 days, with 35 nM UM0128171; Table 1.
Type: cell-based
Description: Human CD34+ cord blood (CB) cells were isolated from fresh units using RosetteSep™ 0034 pre-enrichment cocktail followed by CD34 positive selection using EasySep Kit™ (StemCell Technologies). The cells were then pre-expanded in bulk, by culturing at 37° C. for 6 days in HSC expansion media consisting of StemSpan ACF (StemCell Technologies) supplemented with 100 ng/mL Stem Cell Factor (SCF, Shenandoah), 100 ng/mL FMS-like Tyrosine Kinase 3 Ligand (FLT3L, Shenandoah), 50 ng/mL Thrombopoietin (TPO, Shenandoah), 2 mM GlutaMAX™ (Invitrogen), 10 μg/mL low density lipoproteins (LDL, StemCell Technologies), 10 μg/mL Ciprofloxacin and 35 nM UM0128171. […] Following the pre-expansion, cells were harvested, aliquoted and frozen until use.
For each activity assessment, CD34+ pre-expanded cells (approximately 2000 per well in a 384-well plate) were cultured in HSC expansion media, in the presence of 35 nM UM0128171. Compounds were serially diluted (1/2) in DMSO (10 dilutions per compound) and added to the cells in order to achieve a 1/1000 final dilution. StemRegenin1 (SR1) and/or Compound 1001 were included in all experiments as controls to monitor assay performance. The plate was incubated at 37° C. for 7 days in static conditions (i.e. no shaking and no addition of media). Flow cytometry analysis was performed at the end of the 7-day expansion. Cells were stained with PE-labeled anti-human CD45RA (BD Biosciences) and APC-labeled anti-human CD34 (BD Biosciences) and analyzed using Intellicyt IQue cytometer equipped with ForeCyt software. Gates were drawn around the populations of interest to obtain cell numbers and relative proportions. The EC1.5 value, which is the concentration at which the compound/vehicle ratio is greater or equal to 1.5, was calculated by plotting the CD34+ cell number against concentrations (log-scale) in a 4-PL curve and fitting the curve using IDBS XLfit (set model 251) in Microsoft Excel.
`Nc1c(C(=O)Nc2ccccc2)sc2ncc(Br)cc12` [Compound 1003] showed an EC1.5 of 100 to 1000 nM. `Nc1c(C(=O)Nc2ccc(Br)cc2)sc2ncc(C(F)(F)F)cc12` [Compound 1037] was tested, and the EC1.5 was 100 to 1000 nM. For `CSc1ccc(NC(=O)c2sc3ncc(C(F)(F)F)cc3c2N)cc1` [Compound 1133], the EC1.5 was under 100 nM. `Nc1c(C(=O)Nc2ccc(F)cc2)sc2nc3c(cc12)CCC3` [Compound 1002] showed an EC1.5 of 100 to 1000 nM. With `CCc1cnc2sc(C(=O)Nc3ccccc3)c(N)c2c1` [Compound 1112] the EC1.5 was 100 to 1000 nM. Work on `Nc1c(C(=O)Nc2ccncc2)sc2ncc(Br)cc12` [Compound 1012] yielded an EC1.5 of 100 to 1000 nM. `Cc1ccc2sc(C(=O)Nc3ccccc3)c(N)c2c1` [Compound 1118] showed an EC1.5 of over 5000 nM. Compound `CC(C)c1cnc2sc(C(=O)Nc3ccccc3)c(N)c2c1` [Compound 1103] has an EC1.5 of 100 to 1000 nM. Compound `Cc1cnc2sc(C(=O)Nc3ccccc3)c(N)c2c1` [Compound 1009] has an EC1.5 of 100 to 1000 nM. `Nc1c(C(=O)Nc2ccc(Br)cc2)sc2cnc(C(F)(F)F)cc12` [Compound 1049] gave an EC1.5 of 100 to 1000 nM. `Nc1c(C(=O)Nc2ccc(F)cc2)sc2ncc(C(F)(F)F)cc12` [Compound 1060] gave an EC1.5 of under 100 nM. Compound `CCc1cnc2sc(C(=O)Nc3ccncc3)c(N)c2c1` [Compound 1021] has an EC1.5 of 100 to 1000 nM. `C=CCc1cnc2sc(C(=O)Nc3ccccc3)c(N)c2c1` [Compound 1111] showed an EC1.5 of 1000 to 5000 nM. Compound `C=C(C)c1cnc2sc(C(=O)Nc3ccccc3)c(N)c2c1` [Compound 1090] has an EC1.5 of over 5000 nM. `C#Cc1cnc2sc(C(=O)Nc3ccncc3)c(N)c2c1` [Compound 1020] showed an EC1.5 of over 5000 nM. `Nc1c(C(=O)Nc2ccc(-c3cccnc3)cc2)sc2ncc(C(F)(F)F)cc12` [Compound 1055] was tested, and the EC1.5 was over 5000 nM. With `CCCc1cnc2sc(C(=O)Nc3ccccc3)c(N)c2c1` [Compound 1134] the EC1.5 was over 5000 nM.

Same assay, conditions: concentration at which compound/vehicle ratio of CD34+ cell number is >= 1.5; 7 days, with 35 nM UM0128171; Table 2
Work on `Nc1c(C(=O)Nc2ccccc2)oc2nc3c(cc12)CCC3` [Compound 1153] yielded an EC1.5 of over 5000 nM.
